Structures can show the parent of a compound that is named as a salt. Where two headings read alike, the source gives them in different places. Entries with a single value are a further part of the results.
melting point (free base): 131 to 136 °C
melting point (maleate salt): 171 to 179 °C
SMILES: Oc1ccc([C@H]2CC[C@H](NCC#Cc3ccccc3)CC2)cc1 (as salt: maleate) [Example 23, Trans-4-[4-(3-phenylprop-2-ynylamino)cyclohexyl]phenol]

From US6919377B2, “Cyclohexylamine derivative as subtype selective NMDA receptor antagonists” (Warner Lambert Company LLC, priority 2000, dated 2005)
